According to PubChem BioAssay AID485297 (National Center for Advancing Translational Sciences (NCATS), 2010):
The campaign covered roughly 320,000 compounds. About 9,100 (2.8%) were called active. Inconclusive results, whose numbers are uncertain, are shown with a selection of clear calls. The call rests on the fitted dose curve; in most records, active means well fitted activation curve with a large enough effect; inconclusive means small, poorly fitted or top-dose-only effect; inactive means no such curve, though single readings can be large or run the other way. Potencies of inconclusive entries are left out as doubtful fits.

test: qHTS Assay for Rab9 Promoter Activators; details: Huh7 Rab9 promoter-luciferase reporter, luminescence, 24 h; series mostly up to 9.22 µM; activation, negative = inhibition: at the top concentration; further: nearly all actives have a fitted effect of over 60% in size; on activation, negative = inhibition: % of control where 0% means no effect
Outline: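 Cells were plated at 1500 per well in reduced-serum medium with 10% FBS and left 2 h. Compound in DMSO was then added for 24 h at 37 °C. Reporter signal was read by luminescence after 10 min with luciferase detection reagent.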
Potency means the concentration at half of the fitted maximal effect; tags describe the fitted curve by direction and shape.

SMILES | Potency | activation, negative = inhibition
Cc1cnc(C(=O)NCCc2ccc(Cl)cc2)cn1 | inconclusive [activator, partial curve] | –
N#C/C(=C/c1ccc(N2CCCC2)c([N+](=O)[O-])c1)c1nc2ccccc2[nH]1 | inconclusive [activator, partial curve] | –
CC(SC1=NCCS1)C(=O)Nc1nnc(-c2ccc(Cl)cc2)s1 (stereo not given) | inconclusive [activator, partial curve] | –
O=C(CC(SCCO)c1ccc2c(c1)OCO2)c1ccco1 (stereo not given) | inconclusive [activator, single point] | –
COc1cc(OC)cc(C(=O)Oc2c(CN3CCOCC3)cc(Cl)c3cccnc23)c1 | – | inactive: -40%
O=C(Nc1cccc(F)c1)Nc1ccc2c(c1)CCC2 | active: 2.51 µM | –
COc1ccccc1COC(=O)N/C=C/c1ccco1 | inconclusive [activator, single point] | –
O=C(NCC1CCCO1)c1cc2c(s1)CCC2 (stereo not given) | inconclusive [activator, partial curve] | –
Nc1nc2sc3c(c2c(=O)s1)CCCC3 | inconclusive [activator, single point] | –
N/C(=N\N=C\c1cccc([N+](=O)[O-])c1)c1nonc1N | inconclusive [activator, single point] | –
COc1cc(/C=C2\CCc3c2nc2ccccc2c3C(=O)O)cc(OC)c1OC | active: 3.55 µM | –
COC(=O)c1sccc1NC(=O)Nc1ccc(C)cc1C | – | inactive: 6.68%
FC(F)Oc1ccc(C2N=C(c3ccccc3)NO2)cc1 (stereo not given) | active: 1.58 µM | –
CCOc1ccc2nc(SC3CC(=O)N(c4ccc(OC)cc4)C3=O)sc2c1 (stereo not given) | inconclusive [activator, partial curve] | –
N#Cc1ccc(CO/N=C/c2ccccc2)cc1 | inconclusive [activator, partial curve] | –
O=S(=O)(/N=C(/Nc1nc2ccccc2s1)c1ccccc1)c1ccccc1 | inconclusive [activator, partial curve, poor fit] | –
COc1ccc(C(=O)COC(=O)c2ccn(C)n2)cc1 | inconclusive [activator, partial curve] | –
Oc1ccc(/C=C/c2ccc3ccccc3n2)cc1 | inconclusive [activator, single point] | –
Cc1nccc(-c2cccc(N/N=C(\C#N)C(=O)c3ccccc3)c2)n1 | – | inactive: -7.38%
CCOC(=O)Cc1csc(NC(=O)Nc2cccc(Cl)c2)n1 | – | inactive: -3.07%
O=C(O)c1cc(N/N=C/c2ccc(-c3ccccc3)cc2)ccc1Cl | active: 0.1 µM | –
S=C(c1ccc(-c2ccc(Cl)cc2Cl)o1)N1CCCCC1 | active: 2.82 µM | –
O=C(NOCc1ccccc1)c1ccccc1 | active: 1.78 µM | –
COC(=O)c1c(-c2ccccc2)csc1N1C(=O)Nc2ccccc2N1O | active: 2.82 µM | –
Cc1ccc(Cc2cnc(NC(=O)c3cccs3)s2)cc1 | inconclusive [activator, partial curve] | –

SMILES | Potency | activation, negative = inhibition
Cc1cc(OCC(=O)N2CCCCCC2)ccc1[N+](=O)[O-] | inconclusive [activator, partial curve] | –
CCOc1ccccc1C(=O)Nc1ccc(NC(=O)c2ccccc2)cc1 | – | inactive: 10.5%
Cc1ccc(NC(=O)c2noc3c2CCCCC3)cc1C | active: 0.631 µM | –
O=C(CSc1nc(-c2ccc(F)cc2)cs1)N1CCOCC1 | inconclusive [activator, partial curve] | –
O=c1[nH]c2ccccc2nc1-c1cccs1 | inconclusive [activator, partial curve] | –
CC(=O)c1sc(NCCOc2ccc(C)cc2)nc1C | inconclusive [activator, single point] | –
CC(C)c1cc(C(=O)NCc2ccco2)no1 | inconclusive [activator, partial curve] | –
O=C(Nc1ccc(NC(=O)c2sc3ccccc3c2Cl)cc1Cl)c1ccco1 | inconclusive [activator, partial curve] | –
COc1cccc(OC)c1C(=O)Nc1ccc2c(c1)Cc1ccccc1-2 | inconclusive [activator, partial curve, poor fit] | –
COc1cccc(-c2nnc(NC(=O)c3cccs3)s2)c1 | inconclusive [activator, partial curve] | –
O=S(=O)(c1ccc(F)cc1)N1CCN(S(=O)(=O)c2cccs2)CC1 | – | inactive: 2.66%
CCCCOC(=O)C1=C(C)NC(=O)NC1c1cccc([N+](=O)[O-])c1 (stereo not given) | – | inactive: 2.33%
Cc1csc(NC(=O)c2ccc(S(C)(=O)=O)cc2)n1 | inconclusive [activator, single point] | –
Cc1cccc2sc(N(CCCN(C)C)C(=O)c3ccc4ncsc4c3)nc12 | inconclusive [activator, single point] | –
COc1ccc(NC(=O)CSc2nc(SC)ns2)cc1 | inconclusive [activator, partial curve] | –
O=C(CSc1ccc(-c2ccco2)nn1)c1ccccc1 | inconclusive [activator, single point] | –
CCC(=O)Nc1cccc(-c2cn3cccc(C)c3n2)c1 | inconclusive [activator, single point] | –
N#CC/C(N)=N/NC(=O)CCCNc1ncc(C(F)(F)F)cc1Cl | inconclusive [activator, single point] | –
COc1ccc(CN(CC2CCCO2)C(=O)CN2C(=O)C(C)Oc3ccc(C)cc32)cc1OC (stereo not given) | – | inactive: -2.87%
C=CCn1c(NCc2ccc(OC)cc2O)nc2ccccc21 | inconclusive [activator, partial curve] | –
O=c1[nH]cnc2cc(-c3ccccc3)sc12 | inconclusive [activator, partial curve] | –
Cc1sc(NC(=O)/C=C/c2ccco2)c(C(=O)O)c1C | inconclusive [activator, partial curve] | –
CN(C)/C=N/c1nc(-c2ccc3c(c2)OCO3)cs1 | active: 3.55 µM | –
c1ccc(-c2nnc(NC3=NCCC3)o2)cc1 | active: 0.355 µM | –
CCOC(=O)c1ccc(NC(=O)CSc2nc3sc(C(=O)O)c(C)c3c(=O)[nH]2)cc1 | inconclusive [activator, partial curve] | –

SMILES | Potency | activation, negative = inhibition
O=C(O)c1cccc(N/N=C/c2ccc(F)c(F)c2)c1 | active: 0.282 µM | –
CCOC(=O)N1CCC(NC(=O)c2cc3c(-c4ccc(OC)c(OC)c4)nn(C)c3s2)CC1 | – | inactive: 0.466%
O=C(CN1C(=O)S/C(=C\c2ccc(C(=O)O)cc2)C1=O)Nc1ccccc1 | – | inactive: 3.39%
S=C(NCCN1CCOCC1)Nc1ccc(-c2nc3ccccc3[nH]2)cc1 | inconclusive [activator, partial curve] | –
O=C(O)c1ccc(NC(=S)NC(=O)c2ccc3ccccc3c2)cc1 | inconclusive [activator, partial curve] | –
O=C(CCc1ccccc1)Nc1cc2c(cc1Cl)OCCO2 | active: 3.16 µM | –
O=C(CCc1nnc(CCCc2ccccc2)o1)N1CCCCCC1 | inconclusive [activator, partial curve] | –
C=CCc1cccc(C=Nc2cccn3cc(-c4ccccc4)nc23)c1O | inconclusive [activator, single point] | –
CCC(C)C(=O)N1CCc2cc(-c3csc(N)n3)ccc21 (stereo not given) | active: 1.41 µM | –
CSc1nnc2c(n1)OC=Nc1ccc(Br)cc1-2 | – | inactive: 10.3%
CCn1nc(C)c(/C=N/NC(=O)CSc2ccccn2)c1C | inconclusive [activator, partial curve] | –
CC(=O)N/C(=C\c1ccccc1)C(=O)OCc1cccc(S(=O)(=O)N(C)C)c1 | – | inactive: -0.359%
CC(=O)Nc1ccc(NC(=O)c2ccc(COc3ccc(C)cc3)o2)cc1 | inconclusive [activator, full curve] | –
Cc1ccnc(Sc2ccc([N+](=O)[O-])cn2)n1 | inconclusive [activator, partial curve] | –
N/C(=N\OC(=O)c1ccc2c(c1)OCO2)c1ccc(Br)cc1 | active: 3.98 µM | –
COc1ccc(N=C(C)c2sc3ccccc3c2O)cc1 | inconclusive [activator, full curve, poor fit] | –
COc1ccc(N2CC(C(=O)N[C@@H](CC(C)C)C(=O)NC3CCCCC3)CC2=O)cc1 (stereo not given in full) | – | inactive: 0.966%
CC(C)C(=O)Nc1cccc(C(=O)Nc2ccc3c(c2)OCO3)c1 | active: 1.12 µM | –
O=C(CSc1cccc[n+]1[O-])Nc1cc2c(cc1Cl)C(=O)c1ccccc1C2=O | inconclusive [activator, partial curve] | –
COc1c(C(=O)Nc2ccc(Br)cn2)ccc2ccccc12 | inconclusive [activator, single point] | –
COc1ccc2c(=O)c3ccccc3oc2c1 | inconclusive [activator, partial curve] | –
Cc1cc(C)c(NC(=O)CNC(=O)COC(=O)Cc2ccccc2C)c(C)c1 | – | inactive: -8.71%
COc1ccc(N2C(=O)c3ccccc3NC2c2ccc(OC)c(Cn3cc([N+](=O)[O-])cn3)c2)cc1 (stereo not given) | inconclusive [activator, single point] | –
CC(=O)Nc1cc(C(=O)OCC(=O)c2ccc(C)cc2)ccc1C | active: 2.24 µM | –
O=C(O)c1ccccc1SCC(=O)N1CCc2ccccc21 | inconclusive [activator, partial curve] | –
